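Results reflect a 48-hour exposure of cells in 96-well plates to compound at five concentrations. The concentration for 50% growth inhibition is given as GI50. TGI marks complete inhibition of growth.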
Each molecule was assayed on NCI-H322M lung (assay: NCI anticancer screen, dose series, 48 h).

Row | Compound | GI50 | TGI
1 | CC(C)(O)c1cncc(-c2ccc3ncnc(N4CCc5cc(F)c(Cl)cc54)c3c2)c1 | 0.641 µM | > 100 µM
2 | COc1ccc(-c2cnc(NC(=O)CCCCCCNC(=O)C(O)(O)C(F)(F)F)s2)cc1 | 1.44 µM | 18.9 µM
3 | CNC(=O)c1cc(-c2ccc(NC(=O)Nc3ccc(N4CCN(C)CC4)c(C(F)(F)F)c3)cc2)nc2cccnc12 | 15.6 µM | 29.8 µM
4 | C#C[C@]1(O)CC[C@H]2[C@@H]3CC=C4c5sc(Nc6ncccc6C)nc5CC[C@]4(C)[C@H]3CC[C@@]21C | 3.3 µM | 15.4 µM
5 | COc1ccc(CNS(=O)(=O)/N=C2\NC(=O)NC2=C(Cl)Cl)cc1 | 2.06 µM | > 100 µM
6 | CN(C)CCCOc1ccc(C(=C(c2ccccc2)C2CCCC2)c2ccc(OCCCN(C)C)cc2)cc1 | 2.35 µM | 6.05 µM

Source: PubChem BioAssay (NCI)
